Laboratory results from the supplement of paper PMC9151546.
Many values rest on one well or one pass, so single values are uncertain.

How the values were obtained:
[1] = tested on: CHO-K1; experiment: micronucleus frequency (% of nucleated events); higher = more micronuclei (genotoxic)
[2] = tested on: CHO-K1; experiment: hypodiploid nuclei frequency (% of nucleated events); higher = more hypodiploid events (aneugenic)
Procedure: (§1)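 Flow-cytometric in vitro micronucleus assay (Litron MicroFlow) in CHO-K1 cells in 96-well plates, 19 concentrations (4.5-200 µM, n=1 per concentration). Without S9, cells were exposed for 24 h and sampled at 48 h. With Aroclor 1254-induced rat liver S9, cells were exposed for 3-4 h and sampled at 27-28 h. Read-outs are %MN and %hypodiploid nuclei relative to nucleated events, and relative survival as the nuclei-to-bead ratio versus the 1% DMSO vehicle control (x100).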

[3] = tested on: CHO-K1; experiment: relative survival (nuclei to bead ratio vs DMSO control) (% of vehicle control); higher = more surviving cells
Procedure: as §1
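Throughout, for hypodiploid nuclei frequency (% of nucleated events): hypodiploid nuclei gated on a flow cytometer with 488 nm excitation after SYTOX Green staining, cultures at 37 °C, positive controls vinblastine without S9 and cyclophosphamide with S9.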
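Throughout, for micronucleus frequency (% of nucleated events): cells lysed with nuclei stained by SYTOX Green, then micronucleus-gated events counted against nucleated events by flow cytometry with 488 nm excitation.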
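Throughout, for relative survival (nuclei to bead ratio vs DMSO control): Lysed-cell nuclei stained with SYTOX Green and counted against counting beads by flow cytometry at 488 nm excitation, with vinblastine (no S9) and cyclophosphamide (plus S9) as positive controls.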

Nc1ccc([N+](=O)[O-])cc1 [4-Nitroaniline]
Conditions | hypodiploid nuclei frequency, [2] [%] | micronucleus frequency, [1] [%] | relative survival, [3]
concentration: 4.5 (µM), S9 metabolic activation: with S9, exposure time: 3-4 hours | 0.34 | 1.56 | 85.9
concentration: 4.5 (µM), S9 metabolic activation: without S9, exposure time: 24 hours | 0.66 | 1.72 | 87.8
concentration: 5.63 (µM), S9 metabolic activation: with S9, exposure time: 3-4 hours | 0.2 | 1.88 | 90.6
concentration: 5.63 (µM), S9 metabolic activation: without S9, exposure time: 24 hours | 0.54 | 1.46 | 78.4
concentration: 7.04 (µM), S9 metabolic activation: with S9, exposure time: 3-4 hours | 0.24 | 1.62 | 84.9
concentration: 7.04 (µM), S9 metabolic activation: without S9, exposure time: 24 hours | 0.82 | 1.48 | 87.4
concentration: 8.8 (µM), S9 metabolic activation: with S9, exposure time: 3-4 hours | 0.14 | 0.92 | 98.5
concentration: 8.8 (µM), S9 metabolic activation: without S9, exposure time: 24 hours | 0.56 | 1.76 | 103
concentration: 11 (µM), S9 metabolic activation: with S9, exposure time: 3-4 hours | 0.22 | 1.4 | 91.5
concentration: 11 (µM), S9 metabolic activation: without S9, exposure time: 24 hours | 0.46 | 1.88 | 86
concentration: 13.7 (µM), S9 metabolic activation: with S9, exposure time: 3-4 hours | 0.18 | 1.54 | 73.6
concentration: 13.7 (µM), S9 metabolic activation: without S9, exposure time: 24 hours | 0.68 | 1.5 | 73.6
concentration: 17.2 (µM), S9 metabolic activation: with S9, exposure time: 3-4 hours | 0.24 | 1.62 | 85.2
concentration: 17.2 (µM), S9 metabolic activation: without S9, exposure time: 24 hours | 0.54 | 1.52 | 69.9
concentration: 21.5 (µM), S9 metabolic activation: with S9, exposure time: 3-4 hours | 0.28 | 1.26 | 73.2
concentration: 21.5 (µM), S9 metabolic activation: without S9, exposure time: 24 hours | 0.62 | 1.42 | 88.5
concentration: 26.8 (µM), S9 metabolic activation: with S9, exposure time: 3-4 hours | 0.3 | 1.38 | 108
concentration: 26.8 (µM), S9 metabolic activation: without S9, exposure time: 24 hours | 0.66 | 2.36 | 89.7
concentration: 33.6 (µM), S9 metabolic activation: with S9, exposure time: 3-4 hours | 0.18 | 1.12 | 106
concentration: 33.6 (µM), S9 metabolic activation: without S9, exposure time: 24 hours | 0.86 | 1.66 | 99.2
concentration: 41.9 (µM), S9 metabolic activation: with S9, exposure time: 3-4 hours | 0.28 | 1.64 | 113
concentration: 41.9 (µM), S9 metabolic activation: without S9, exposure time: 24 hours | 0.82 | 2.18 | 97.8
concentration: 52.4 (µM), S9 metabolic activation: with S9, exposure time: 3-4 hours | 0.18 | 1.44 | 96.9
concentration: 52.4 (µM), S9 metabolic activation: without S9, exposure time: 24 hours | 0.7 | 2.2 | 90.5
concentration: 65.5 (µM), S9 metabolic activation: with S9, exposure time: 3-4 hours | 0.26 | 1.82 | 102
concentration: 65.5 (µM), S9 metabolic activation: without S9, exposure time: 24 hours | 0.78 | 2.48 | 106
concentration: 81.9 (µM), S9 metabolic activation: with S9, exposure time: 3-4 hours | 0.32 | 1.42 | 89.8
concentration: 81.9 (µM), S9 metabolic activation: without S9, exposure time: 24 hours | 0.84 | 1.96 | 89.3
concentration: 102 (µM), S9 metabolic activation: with S9, exposure time: 3-4 hours | 0.16 | 1.84 | 93
concentration: 102 (µM), S9 metabolic activation: without S9, exposure time: 24 hours | 0.72 | 1.92 | 93.4
concentration: 128 (µM), S9 metabolic activation: with S9, exposure time: 3-4 hours | 0.12 | 1.14 | 97.5
concentration: 128 (µM), S9 metabolic activation: without S9, exposure time: 24 hours | 1.24 | 4.18 | 85.6
concentration: 160 (µM), S9 metabolic activation: with S9, exposure time: 3-4 hours | 0.22 | 1.36 | 104
concentration: 160 (µM), S9 metabolic activation: without S9, exposure time: 24 hours | 1.4 | 2.64 | 74.7
concentration: 200 (µM), S9 metabolic activation: with S9, exposure time: 3-4 hours | 0.14 | 1.18 | 92.7
concentration: 200 (µM), S9 metabolic activation: without S9, exposure time: 24 hours | 1.68 | 2.76 | 81.8

C1CC2OC2CC1C1CO1 (stereo unspecified) [4-Vinyl-1-cyclohexene dioxide]
Conditions | hypodiploid nuclei frequency, [2] [%] | micronucleus frequency, [1] [%] | relative survival, [3]
concentration: 4.5 (µM), S9 metabolic activation: with S9, exposure time: 3-4 hours | 0.38 | 1.7 | 107
concentration: 4.5 (µM), S9 metabolic activation: without S9, exposure time: 24 hours | 1.26 | 2.18 | 111
concentration: 5.63 (µM), S9 metabolic activation: with S9, exposure time: 3-4 hours | 0.32 | 1.76 | 104
concentration: 5.63 (µM), S9 metabolic activation: without S9, exposure time: 24 hours | 1.36 | 2.56 | 115
concentration: 7.04 (µM), S9 metabolic activation: with S9, exposure time: 3-4 hours | 0.32 | 1.66 | 101
concentration: 7.04 (µM), S9 metabolic activation: without S9, exposure time: 24 hours | 1.1 | 2.5 | 108
concentration: 8.8 (µM), S9 metabolic activation: with S9, exposure time: 3-4 hours | 0.42 | 1.46 | 108
concentration: 8.8 (µM), S9 metabolic activation: without S9, exposure time: 24 hours | 1.14 | 2.4 | 108
concentration: 11 (µM), S9 metabolic activation: with S9, exposure time: 3-4 hours | 0.28 | 1.34 | 111
concentration: 11 (µM), S9 metabolic activation: without S9, exposure time: 24 hours | 1.32 | 2.74 | 113
concentration: 13.7 (µM), S9 metabolic activation: with S9, exposure time: 3-4 hours | 0.26 | 1.3 | 125
concentration: 13.7 (µM), S9 metabolic activation: without S9, exposure time: 24 hours | 1.16 | 2.42 | 115
concentration: 17.2 (µM), S9 metabolic activation: with S9, exposure time: 3-4 hours | 0.56 | 2.12 | 89.9
concentration: 17.2 (µM), S9 metabolic activation: without S9, exposure time: 24 hours | 1.38 | 2.7 | 132
concentration: 21.5 (µM), S9 metabolic activation: with S9, exposure time: 3-4 hours | 0.32 | 1.92 | 112
concentration: 21.5 (µM), S9 metabolic activation: without S9, exposure time: 24 hours | 0.84 | 2.44 | 107
concentration: 26.8 (µM), S9 metabolic activation: with S9, exposure time: 3-4 hours | 0.34 | 1.74 | 104
concentration: 26.8 (µM), S9 metabolic activation: without S9, exposure time: 24 hours | 1.32 | 2.16 | 114
concentration: 33.6 (µM), S9 metabolic activation: with S9, exposure time: 3-4 hours | 0.3 | 1.5 | 94
concentration: 33.6 (µM), S9 metabolic activation: without S9, exposure time: 24 hours | 1.36 | 1.92 | 108
concentration: 41.9 (µM), S9 metabolic activation: with S9, exposure time: 3-4 hours | 0.3 | 1.38 | 107
concentration: 41.9 (µM), S9 metabolic activation: without S9, exposure time: 24 hours | 1.62 | 2.88 | 108
concentration: 52.4 (µM), S9 metabolic activation: with S9, exposure time: 3-4 hours | 0.26 | 1.36 | 100
concentration: 52.4 (µM), S9 metabolic activation: without S9, exposure time: 24 hours | 1.62 | 2.16 | 101
concentration: 65.5 (µM), S9 metabolic activation: with S9, exposure time: 3-4 hours | 0.24 | 1.32 | 98.3
concentration: 65.5 (µM), S9 metabolic activation: without S9, exposure time: 24 hours | 1.52 | 2.38 | 109
concentration: 81.9 (µM), S9 metabolic activation: with S9, exposure time: 3-4 hours | 0.2 | 1.84 | 108
concentration: 81.9 (µM), S9 metabolic activation: without S9, exposure time: 24 hours | 1.58 | 2.74 | 113
concentration: 102 (µM), S9 metabolic activation: with S9, exposure time: 3-4 hours | 0.2 | 1.66 | 110
concentration: 102 (µM), S9 metabolic activation: without S9, exposure time: 24 hours | 2 | 2.72 | 100
concentration: 128 (µM), S9 metabolic activation: with S9, exposure time: 3-4 hours | 0.32 | 1.86 | 90.4
concentration: 128 (µM), S9 metabolic activation: without S9, exposure time: 24 hours | 1.86 | 3.7 | 98.3
concentration: 160 (µM), S9 metabolic activation: with S9, exposure time: 3-4 hours | 0.28 | 1.6 | 95.9
concentration: 160 (µM), S9 metabolic activation: without S9, exposure time: 24 hours | 2.2 | 3.46 | 101
concentration: 200 (µM), S9 metabolic activation: with S9, exposure time: 3-4 hours | 0.3 | 1.9 | 70.4
concentration: 200 (µM), S9 metabolic activation: without S9, exposure time: 24 hours | 2.3 | 5.16 | 78.6
